Reference: PubChem BioAssay AID504706 (National Center for Advancing Translational Sciences (NCATS), 2011)
Among all 320,000 compounds or so, about 200 (0.062%) were called active. Inconclusive means that the source gave no clear call. Such entries were picked first, then a sample of the others. The call rests on the fitted dose curve; in most records, active means well fitted activation curve with a large enough effect; inconclusive means small, poorly fitted or top-dose-only effect; inactive means no such curve, though single readings can be large or run the other way. Potencies of inconclusive entries are left out as doubtful fits.

Assay: qHTS assay for re-activators of p53 using a Luc reporter; further: nearly all actives have a fitted effect of over 45% in size
Details: H1299 p53-A138V BP100-luciferase reporter, luminescence, 24 h; series mostly up to 92.2 µM
Procedure, shortened: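 p53-null H1299 cells stably carrying temperature-sensitive p53-A138V and a BP100-luciferase reporter were pinned with compounds (4-point, 1:5 series) and held 24 hrs at 37 deg C. Luminescence was read 10 min after detection reagent.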
Potency means the concentration at half of the fitted maximal effect; tags describe the fitted curve by direction and shape.

| SMILES | Potency |
| --- | --- |
| CC(C)C(=O)Nc1ccc2c(c1)oc1ccccc12 | inconclusive [activator, partial curve, poor fit] |
| CC(C)(C)NNC(=S)Nc1ccc(S(=O)(=O)N2CCOCC2)cc1 | inconclusive [activator, single point] |
| CCOc1ccc(-n2cccc2C=O)cc1 | inconclusive [activator, full curve, poor fit] |
| c1ccc(C2=NNC(c3ccccn3)=NN2)nc1 | inconclusive [activator, partial curve, poor fit] |
| O=C(c1ccccc1)c1nnc(-c2ccccc2F)o1 | inconclusive [activator, full curve, poor fit] |
| CNc1nnc(CSc2nc3ccccc3s2)s1 | inconclusive [activator, full curve, poor fit] |
| O=C(Nc1cc(-c2ccccc2)[nH]n1)c1ccccc1 | inconclusive [activator, partial curve, poor fit] |
| CC(c1ccco1)N(C(=O)COc1ccc(Cl)cc1)c1ccccn1 (configuration not stated) | inconclusive [activator, partial curve, poor fit] |
| Cc1ccc(F)cc1NCC(=O)Nc1ccc(Br)cc1 | inconclusive [activator, partial curve, poor fit] |
| O=C(CCc1ccccc1)NCC(c1ccco1)N1CCc2ccccc21 (configuration not stated) | inactive |
| O=C(CSCc1ccc(F)cc1)N1CCN(c2ccccc2)CC1 | inconclusive [activator, partial curve, poor fit] |
| CCCCNC(=O)C1CC(c2cccc(F)c2)=NO1 (configuration not stated) | inconclusive [activator, partial curve, poor fit] |
| Cc1ccc(C(=O)OCc2nc3ccccc3s2)o1 | inconclusive [activator, partial curve, poor fit] |
| CCCc1sc(N/N=C/c2ccccn2)nc1-c1ccc(Br)cc1 | inconclusive [activator, single point] |
| Cc1ccc(C2(C)CC(C)(C)N(C(=O)CSc3nnc(C)s3)c3ccccc32)cc1 (configuration not stated) | inactive |
| COc1ccccc1NC(=O)CCCNC(=O)Cn1cnc2sc(C)c(C)c2c1=O | inactive |
| CC(=O)Nc1ccc(-c2cn3cccnc3n2)cc1 | inconclusive [activator, partial curve, poor fit] |
| Cn1c(-c2ccc(N)cc2)nc2ccccc21 | inconclusive [activator, partial curve, poor fit] |
| Oc1ccc(N=Nc2ccccc2)o1 | inconclusive [activator, single point] |
| O=C(NCc1ccc(F)cc1)C1CC(=O)N(Cc2ccco2)C1 (configuration not stated) | inconclusive [activator, partial curve, poor fit] |
| O=[N+]([O-])c1nn(-c2ccc3c(c2)OCCO3)n(O)c1=NC1CCCCC1 | inconclusive [activator, partial curve] |

| SMILES | Potency |
| --- | --- |
| CCOc1ccc2nc(NS(=O)(=O)Cc3ccccc3)sc2c1 | inconclusive [activator, partial curve, poor fit] |
| O=C(CCCN1C(=O)/C(=C/c2ccccc2Cl)SC1=S)NNC(=O)c1ccc(Cl)cc1Cl | inactive |
| COc1ccc(S(=O)(=O)N(CC(=O)N2CCOCC2)c2cc(Cl)ccc2OC)cc1OC | inactive |
| O=C(Nc1ccc(Cl)cc1)Nc1ccccc1Sc1ncc([N+](=O)[O-])s1 | inconclusive [activator, full curve] |
| CCN1CCN(c2ccc(S(=O)(=O)N3CCCCC3)cc2NC(=O)COc2cc(C)ccc2Cl)CC1 | inactive |
| COc1ccccc1NC(=O)CN1CCN(CC(=O)Nc2ccc(F)cc2F)CC1 | inconclusive [activator, full curve, poor fit] |
| Cc1ccc(C(=O)OCC(=O)N2CCCCCC2)c(O)c1 | inconclusive [activator, full curve, poor fit] |
| O=C(c1ccc(-c2ccccc2Cl)o1)N1CCCC(C(F)(F)F)C1 (configuration not stated) | inconclusive [activator, full curve, poor fit] |
| O=C(NC(=S)N1CCCC1)c1cccc([N+](=O)[O-])c1 | inconclusive [activator, single point] |
| CCCCNC(=O)/C(C#N)=c1\s/c(=C\c2ccccc2OC(F)F)c(=O)n1CCCOC | inactive |
| O=C(NCc1ccccc1)c1ccc(-c2ccccc2F)o1 | inconclusive [activator, partial curve, poor fit] |
| COc1ccc(Cl)cc1NC(=O)NN1CCN(C)CC1 | inconclusive [activator, partial curve, poor fit] |
| CNC(=O)C(C)c1ncc(C(F)(F)F)cc1Cl (configuration not stated) | inactive |
| Cc1cccc(NC(=O)c2ccccc2O)c1C | inconclusive [activator, partial curve, poor fit] |
| CCc1c(C(=O)N/N=C/c2cccs2)nnn1-c1nonc1N | inconclusive [activator, single point] |
| C(=C\c1ccco1)/c1ccc2ccccc2n1 | inconclusive [activator, partial curve, poor fit] |
| O=C(NC(=S)Nc1ccc2c(c1)OCCO2)c1cccc(Br)c1 | inconclusive [activator, partial curve, poor fit] |
| COc1cc2[nH]c(=O)n(CCCCCC(=O)N3CC=C(c4ccccc4)CC3)c(=O)c2cc1OC | inactive |
| COc1cccc(-c2nnc(-c3ccc(C(F)(F)F)cc3)o2)c1OC | inconclusive [activator, partial curve, poor fit] |
| C=C(C)C(O)Cc1c(OC)ccc(C(=O)/C=C/c2ccc(O)cc2)c1O (configuration not stated) | inconclusive [activator, partial curve, poor fit] |
| CC1(C(=O)OCC(=O)Nc2ccccc2)CC1(Cl)Cl (configuration not stated) | inconclusive [activator, full curve, poor fit] |
